Patent US20180335433A1 (LA JOLLA INSTITUTE FOR ALLERGY AND IMMUNOLOGY, published 2018)

Molecular target: PKCθ P331/4A (two internal Pro residues of the PR motif mutated to alanine) (human, UniProt Q04759 1-706)
Assay: anti-CD28 co-IP, stimulated transduced PKCθ-/- T cells (FIG. 4c)

B1: CD28, endogenous in primary mouse CD4+ T cells (receptor)
chain: not shown
notes: whole, on cells; Immunoprecipitated with anti-CD28 mAb from lysates of retrovirally transduced mouse T cells; also called murine CD28
- binding result: no binding
